Source: the supplement of paper PMC6089552
The whole screen tested about 3,200 compounds, of which about 300 (9.4%) showed activity. The list shows a part of the results, in another mix than the full data.

Test system: A673/TR/shEF
Assay: cell viability (LOESS-normalised, relative to median of negative controls) (log2 ratio); higher = more viable cells (less compound effect), active = hit call of the paper (over 3 MAD below the median)
Settings: treatment time: 72 h
In short: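 A673/TR/shEF Ewing sarcoma cells (1,500 per well, 384-well plates) were grown with or without doxycycline to induce EWS-FLI1 shRNA knockdown, starting 24 h before compounds. Library compounds at two or more concentrations, with DMSO controls, were added for three days. Cell viability was read by CellTiter-Glo luminescence on an Envision reader, then LOESS-corrected per plate, divided by the median of negative controls and log2-transformed. Hits were wells at least three median absolute deviations from the median of all screened wells.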

[1] = 0.25 µM, library screen: screen1, EWS-FLI1 expression: high (no doxycycline)
[2] = 0.25 µM, library screen: screen1, EWS-FLI1 expression: low (doxycycline-induced shRNA knockdown)
[3] = 2.5 µM, library screen: screen1, EWS-FLI1 expression: high (no doxycycline)
[4] = 2.5 µM, library screen: screen1, EWS-FLI1 expression: low (doxycycline-induced shRNA knockdown)
[5] = 0.25 µM, library screen: screen2, EWS-FLI1 expression: high (no doxycycline)
[6] = 0.25 µM, library screen: screen2, EWS-FLI1 expression: low (doxycycline-induced shRNA knockdown)
[7] = 2.5 µM, library screen: screen2, EWS-FLI1 expression: high (no doxycycline)
[8] = 2.5 µM, library screen: screen2, EWS-FLI1 expression: low (doxycycline-induced shRNA knockdown)
[9] = 0.103 µM, library screen: screen3, EWS-FLI1 expression: high (no doxycycline)
[10] = 0.103 µM, library screen: screen3, EWS-FLI1 expression: low (doxycycline-induced shRNA knockdown)
[11] = 0.308 µM, library screen: screen3, EWS-FLI1 expression: high (no doxycycline)
[12] = 0.308 µM, library screen: screen3, EWS-FLI1 expression: low (doxycycline-induced shRNA knockdown)
[13] = 0.926 µM, library screen: screen3, EWS-FLI1 expression: high (no doxycycline)
[14] = 0.926 µM, library screen: screen3, EWS-FLI1 expression: low (doxycycline-induced shRNA knockdown)
[15] = 2.8 µM, library screen: screen3, EWS-FLI1 expression: high (no doxycycline)
[16] = 2.8 µM, library screen: screen3, EWS-FLI1 expression: low (doxycycline-induced shRNA knockdown)
[17] = 8.3 µM, library screen: screen3, EWS-FLI1 expression: high (no doxycycline)
[18] = 8.3 µM, library screen: screen3, EWS-FLI1 expression: low (doxycycline-induced shRNA knockdown)
[19] = 25 µM, library screen: screen3, EWS-FLI1 expression: high (no doxycycline)
[20] = 25 µM, library screen: screen3, EWS-FLI1 expression: low (doxycycline-induced shRNA knockdown)

Measured: cell viability (log2)

CC1Cc2ccccc2N1C(=S)Nc1ccc2nccnc2c1 (stereo unspecified)
inactive: [1] 0.139 | [2] 0.113 | [3] 0.133 | [4] 0.0139

O=C(O)C1CN(CCCP(=O)(O)O)CCN1 (stereo unspecified)
inactive: [5] 0.0853 | [6] 0.0707 | [7] 0.0988 | [8] 0.109

O=C(CC(=O)c1ccccc1O)c1ccccc1
inactive: [1] -0.0422 | [2] 0.0785 | [3] 0.114 | [4] 0.133

CCCCCCCCCCCCCCCC(=O)OC(CC(=O)[O-])C[N+](C)(C)C (stereo unspecified)
inactive: [5] 0.153 | [6] 0.133 | [7] 0.18 | [8] 0.0929

O=C(O)c1cc(=O)c2ccccc2[nH]1
inactive: [1] 0.105 | [2] 0.028 | [5] 0.148 | [6] 0.136 | [3] 0.159 | [4] 0.0839 | [7] 0.0707 | [8] 0.0598

CC(=O)N=c1sc(S(N)(=O)=O)nn1C
inactive: [1] 0.0594 | [2] 0.0456 | [3] 0.15 | [4] 0.092

CC(C)NNC(=O)c1ccncc1
inactive: [1] 0.0221 | [2] 0.0941 | [5] 0.0555 | [6] 0.0797 | [3] 0.132 | [4] 0.16 | [7] 0.0722 | [8] 0.148

CSCCC(NC=O)C(=O)NC(C)C(=O)O (stereo unspecified)
inactive: [1] 0.11 | [2] 0.0779 | [3] 0.177 | [4] 0.154

NC(N)=NCCCCN=C(N)N
inactive: [1] 0.0437 | [2] 0.0325 | [5] 0.0915 | [6] 0.112 | [3] 0.0862 | [4] 0.037 | [7] 0.0239 | [8] 0.0587

O=C(O)c1ccccc1Nc1cccc(C(F)(F)F)c1
inactive: [1] 0.154 | [2] 0.0501 | [3] 0.141 | [4] 0.0483

Clc1ccc(C(c2ccccc2Cl)C(Cl)Cl)cc1 (stereo unspecified)
inactive: 0.025 µM, library screen: screen2, EWS-FLI1 expression: high (no doxycycline) 0.119 | 0.025 µM, library screen: screen2, EWS-FLI1 expression: low (doxycycline-induced shRNA knockdown) 0.0601 | [1] 0.118 | [2] 0.0601 | [5] 0.16 | [6] 0.107 | [3] 0.121 | [4] 0.0186 | [7] 0.0914 | [8] 0.0523 | 25 µM, library screen: screen2, EWS-FLI1 expression: high (no doxycycline) 0.121 | 25 µM, library screen: screen2, EWS-FLI1 expression: low (doxycycline-induced shRNA knockdown) 0.0697

Cc1cccc(C)c1OCC(=O)N[C@@H](Cc1ccccc1)[C@@H](O)C[C@H](Cc1ccccc1)NC(=O)[C@H](C(C)C)N1CCCNC1=O
inactive: [9] 0.00796 | [10] 0.05 | [11] -0.0398 | [12] 0.0179 | [13] -0.0281 | [14] -0.00525 | [15] -0.0155 | [16] 0.0516 | [17] 0.0372 | [18] 0.0544 | [19] -0.00807 | [20] 0.0172

CN1[C@@H]2CC[C@@H]1CC(OC(c1ccccc1)c1ccccc1)C2 (stereo partly specified)
inactive: [1] 0.132 | [2] 0.107 | [5] 0.135 | [6] 0.0858 | [3] 0.0835 | [4] 0.0797 | [7] 0.114 | [8] 0.0926

C[C@@H]1CC[C@@]2(OC1)O[C@H]1C[C@H]3[C@@H]4CC=C5C[C@@H](O)CC[C@]5(C)[C@H]4CC[C@]3(C)[C@H]1[C@@H]2C
inactive: [1] 0.0583 | [2] 0.0531 | [3] 0.133 | [4] 0.13

CCOc1nc2cccc(C(=O)O)c2n1Cc1ccc(-c2ccccc2-c2nn[nH]n2)cc1
inactive: [1] 0.102 | [2] 0.0532 | [3] 0.153 | [4] 0.125

NCCCS(=O)(=O)O
inactive: [1] 0.0521 | [2] -0.0178 | [5] 0.113 | [6] 0.18 | [3] 0.192 | [4] 0.173 | [7] 0.00997 | [8] 0.115

CC(C)[C@H](O)C(=O)N[C@@H](C)C(=O)N[C@@H]1C(=O)N(C)CCc2ccccc21
inactive: [9] -0.0287 | [10] 0.04 | [11] 0.0566 | [12] 0.0157 | [13] -0.0525 | [14] 0.0492 | [15] -0.112 | [16] 0.0257 | [17] -0.0518 | [18] 0.0808 | [19] -0.014 | [20] 0.0386

CC(C)CCC[C@@H](C)[C@H]1CC[C@H]2[C@@H]3CC[C@@H]4C[C@H](O)CC[C@]4(C)[C@H]3CC[C@]12C
inactive: [1] 0.108 | [2] 0.0181 | [3] 0.105 | [4] 0.0609
